# Reference: the RNAGym collection of RNA variant scans (doi:10.7554/elife.90254)
# Read counts are not given, so values of variants with three or more changes are uncertain.
# B1: LINE1-mini (parent)
# chain: GGCAGAGCUCAACACAGCGUGGCAAAGUGGCUGUGGCUAGACUGCC
# Variants of: B1
# Assay: self-cleavage, relative activity (ratio to wild type); higher = more cleavage; in vitro, sequencing; the parent is a self-cleaving ribozyme
row,Variant,self-cleavage
1,GGUAGAGCUCAACACAUCCUGGCAAAGUGGCUGUGGCUAGACUGCC,1.24
2,GGUAAAGGUCAACACAGCCUGGCAAAGUGGCUGUGGCUAUACUGCC,0.08
3,GGUAUAGCUCAACACAGCGUGGCAAACUGGCUGUGGGUAAACUGCC,0.13
4,GGUAGAGCUCAACACAACGUGGCAAAGGGGAUGUGGCUCGACUGCC,0.01
5,GGUAGAGCUCAACACAGCGUCGCAAAGUGGCUGGGGCUAGACUGCC,0.04
6,GGUAGAGCUCAACACAGCGUCGCAAAGUGGCUGAGGCUAGACUGCC,0.08
7,GGUAGAUCUCAACACAGCGUGUAAAAGUGGGUGUGGCUAGACUGCC,0.02
8,GGUAGAGCUCAACACAGCUUGGCGCAGUGGCUGUGGCUAGACUGCC,0.15
9,GGUAGAGCUCAACACAGCGUGGCAAAGUGGCUUUGGAUAGACUGCC,0.21
10,GGUAGAGCUCAACACAGCGUUGCAAAGCCGCUGUGGCAAGACUGCC,0.02
11,GGUACAUCUCAAGACAGCGUGGCCCAGUGGCUGUCGCUAGACUGCC,0.03
12,GGUAGAGCUCAACACAACGUGGAAAUGUGGCUUUGGCUAGACUGCC,0.02
13,GGUAGAACUCAACACAUAGUGGCUAAGUGGCUGUGGCUAGACUGCC,0.28
14,GGUAGAGCUCAACAUAGCGUGGGAAAGUAGCUGUUGCUAGACUGCC,0.23
15,GGUAGAGCUCAACACAGCGUGCCAAAGUUGCUGUGGCUAGACUGCC,0.28
16,GGUAGAGCUCAACACAGCGUGACAAAGUGGCCUUUGCUAGACUAAC,0.03
17,GGUAGAGCUCAACACAGCGUGGCAAAGUGGGUGUGGCUAGCCUGCC,0.49
18,GGUAGAGCUCAACACAGCGUAGCAAAGUUGCUGUAGCUAGACUGCC,1.36
19,GGUAGAUAGAAACACAGCGUGGCAAAGUGGCUGUGGCUAGACUGCC,0.04

row,Variant,self-cleavage
1,GGUAAAGCUCAAGACAGCGUGGCAAAGUGGCGGUGGCUAGACUGCC,0.07
2,GGUAGAGCUCAACACAGCGUGGAAAUGUGGAUGUGGCUAGACUGCC,0.01
3,GGUAGAGCUCAACACAGAGUGGCAAAGUGGCUGUGGCUCGACUGCC,0.02
4,GGUAGAGCUCAACAUAGCGUGGCAAAGUGGGUGCGGCUAGACUGCC,0.06
5,GGUAGAGCUCAACACAGGGUGGCAAAGUGGCUGUGGCUAGACGGCA,0.3
6,GGUAGAGCUCAACACAGCGUGGCAAAAUGGCUGUUGCUAGACUGCC,0.34
7,GGUAAACCUCAACACAGCGUGGGGAAGUGGCUGUGGCUAGACUGCC,0.08
8,GGUAGAGCUCAACAAUGCGUGGCAAAGUGGCUGUGGCUAGACUGCC,0.08
9,GGUAGAGCUCAACACAGCGUGGUAAAGUGGCCGUGGCUAGACUGCC,0.07
10,GGUAGAACUCAACACUGCGUGGCAAAGUGGCUGUGGCUAGACUGCC,0.22
11,GGUAGAGCUCAACAUAGCGUGGCAAACUGGCUGUGGCUAGACUGCC,0.08
12,GGUAGAGCUCAACACAGCGUGGCAAAGUGGUUGUGGAUAGACUGCC,0.03
13,GGUAGAACUCAACAUAGCGUGGCAAACUUGCUGUGGCUAUACUGCC,0.17
14,GGUAGAGCUCAAUACAGCGUGGCAAAGUGGCUGUGGCCACACUGCC,0.04
15,GGUAGAAAUCAACACAGCAUGGCAAAGUGGCUGAGGCUAGACUGCC,0.08
16,GGUAGAGCUCAACACAACGUGCCAAAGUGGGUGUGGCUACAUAGCC,0.01
17,GGUAGAGCUCAACACAGCGUCGCAGGGUCGCUGUGGCUAGACUGCC,0.13
18,GGUAGAACUAAACACAGAGUGGCAAAGUGGCUGUGGCUAGCCUGAC,0
19,GGUAGAGCUCAACACAGCGUGGCAAAGUGGUUGUGGCUAGACUGGC,0.03

row,Variant,self-cleavage
1,GGUAGAGCUCAACACAGCGUAGCAAUGUGGCUGUGGCUAGUCUGCC,0.7
2,GGUAAAGCUCAACACAGAGUGGCAAAGUGGCUGUGUCUAGACUGCC,0.04
3,GGUAGAGCUCAACACAGCGUGGCAAAGUGGCUGUGUCUACACUGCC,0.08
4,GGUAGAGCUCAACACAGCGUGGCAAAGUGGCUGUGUCUAUACUGCC,0.22
5,GGUAGAGCUCAACACAGCGUCGCAGAGAGGCUGUGGCUAGACAGCC,0
6,GGUAGAGCUCAACACAGAGUGGCAAAGUGGCUGUCGCUAGACUGCC,0.04
7,GGUAGAGCUCAACACAGUGUGGCAAAGUGGCCGUGGCAAGACUGCC,0.05
8,GGUAGAUCUCAACACAGGGUGGCAAAGUGGCUGUGGCUAGACUGCC,0.03
9,GGUAGAGCUCAACACAGAGUGGCAAAGUGGCUGUGGCUAGACUGCU,0.08
10,GGUAGAGCACUACACAGCGUGGCAAAGUGGCUGUGGCUAGACUGCC,0.05
11,GGUAGAGCUCAACACAGCGUGGCAAAUUGGCUGUGGCUAGAUUGCC,0.03
12,GGUAGAGCUCAACACAGUGUGGCAAAGAGGCUAUGGCUAGACUGCC,0.12
13,GGUAGAGCUCAACACAGAGUGGCAAAGUGGCUGUGGCUAUACUGCC,0.09
14,GGUACAGGUCAACACAGCGUGGUAAAGUGGCUGUGGCUAGACUGCC,0.19
15,GGUAGAGCUCAACACAGCGUCGCAAAGUGGCUUUGUCUAGACUGCC,0.06
16,GGUAGAUGUCUAUACAGCGUGGCAAAGUGGCUGUGGCUAGACUGCC,0.17
17,GGUAGAGCUCAACACAGCGUCGGAAAGUGGCUGUGGCUAGAAUGCU,0.08
18,GGUAGAACUCAACACAGCGUGGCAAAGUGGCUGUGGCUAGACCGCC,0.07
